The source gives no read counts; variants with many changes may rest on few reads.
B1: OR4K15 (parent)
chain: GUUAACGGUCAUAGGCCAUGGAAACUAGGAGCACCAUUUCGCUGCCAGUGAAGAAAUGAACAAAGAAAAUCUGGGCCAGGCAGGCAUCAAAAGAAAUAGUCUUGCGCUCAACCAGAAAGUCUGUAAUCAUUUUAAGGGUA

Variants of: B1
Assay: self-cleavage, relative activity (ratio to wild type); higher = more cleavage; in vitro, sequencing; the parent is a self-cleaving ribozyme

| Variant | self-cleavage |
| --- | --- |
| U3C A89G A90G U131C | 0.84 |
| A66G C113U A118G | 0.05 |
| A27U U57C A59U | 1.5 |
| C42U A63G A95G A118G | 2.55 |
| A5U C25A U43A A62G A68G | 1.12 |
| A11U U38C U57A U72C A89G | 0.28 |
| U57A A110G A111G | 0.01 |
| A11G U49C A140U | 0.4 |
| A64C A78U A94G U103C U122C | 0.03 |
| A59G A94G U97C | 0.92 |
| A30G A55U A110G U120C | 0.08 |
| G41A A78G A89U U108C A117G | 0.01 |
| A5G G8U U39C A68G A78C A118G A135G | 0.43 |
| U3C A52G A92G | 0.75 |
| A96G U102C U132C | 2.08 |
| A59G U87C U122C | 0.77 |
| A30G A117G U133A | 1.53 |
| A51U U72A C109U | 0.08 |
| U9C U19C G20A A86G A96G A111G | 0.04 |
| G1A A95U A118G | 1.47 |
| C6A U87A U127C | 0.61 |
| A33U U37C A67G C76U A111G | 0.03 |
| A30G U43C A60G C77U A92G C107U U139C | 0.02 |
| U9A A18G U43A G123C | 0.56 |

| Variant | self-cleavage |
| --- | --- |
| U43A A111G A125G | 0 |
| A22G A24G U39C | 0.84 |
| A51G A59G A86U U131C G138C | 1.64 |
| A5G A67G A95C | 0.77 |
| G7A A66G A95G U133C | 1.36 |
| A30G A52G A62G A67G U124C | 1.03 |
| C85U A95G U130C | 1.24 |
| U38C A60G A126U | 0.61 |
| A66G U102C A118G | 1.41 |
| A11G A18U A59G A111G | 0.03 |
| A54G A66G U127C | 1.26 |
| A63U A69G U100A | 1.75 |
| C61U A63U A94G | 2.29 |
| A22G A60U A68G | 0.93 |
| A24C U120A A140G | 2.05 |
| A52C A56U A68U | 1.49 |
| C34U U43C A78G A114G A135G U139G A140U | 0.01 |
| U9C U38C A51G A95G U132C U133C | 2.22 |
| U3A U39C A64U A96G | 0.56 |
| A51G G83A U131C | 1.75 |
| C34U A60G A118G | 0.54 |
| A18U U72A A140G | 0.2 |
| A55G G84U A90U A116G | 0.06 |
| A92C U130C A134G | 1.4 |

| Variant | self-cleavage |
| --- | --- |
| A18C A67G A78U | 0.12 |
| A56C U87C U108A | 0 |
| A18G A23G A52U U108G | 0.11 |
| A52G A55G A78U | 0.23 |
| U70C A118U U120C | 0.09 |
| A18G A94G U97C | 0.73 |
| A54U A86U U87G | 1.05 |
| G7A A68G A94G U100C A129G | 2.37 |
| G119A U127C U130C | 0.5 |
| U49C U72C A91G C113U | 0.02 |
| U49A U97C U127C | 0.6 |
| A33G C40U A51G | 1.23 |
| A55U A60U A114G | 0.27 |
| A56G U87C U100C | 2.11 |
| A51G A63G A117G | 2.51 |
| A11U A55G U103C C113U | 0 |
| U9C A23G A69U | 1.29 |
| A59G A66G A67G A89U | 1.19 |
| A23U G75A A86G A95G A129G | 0.03 |
| A11G A23G A59G U127C | 0.53 |
| U19C G53U A86U U122C U139A | 1.57 |
| A64G U122A U139C | 0.25 |
| A91G A116G U122C | 0.24 |
| G44A U72A U102A | 0.19 |

| Variant | self-cleavage |
| --- | --- |
| A18C A24G A55G A110G | 0.12 |
| U49A A111G U124C | 0 |
| G21U A51G A114G | 0.79 |
| A33U A82G G83U | 0.15 |
| A5U A23G A55G | 0.74 |
| U9C A47U U97C | 1.01 |
| A13U A23G C35U | 1.4 |
| A18U A55G G84A U102A | 1.69 |
| U9C A51G A86U | 0.45 |
| U19C A22U U38C A78C A94G U132C | 0.11 |
| A63U A98U U122A | 1.54 |
| U9C A11U A30G U132C | 1.31 |
| A36G A51G A90G | 2.03 |
| A78G U103C A111G | 0.02 |
| A23U A78G A111G | 0.03 |
| A54U A63G A82G A126G | 0.4 |
| A59G A96G A125G | 0.74 |
| A63G A111G U127A | 0.02 |
| U43C U57C A82U A95G A117G | 0.16 |
| U97C A117G U132C | 0.79 |
| A68G A117G U130C U131C | 1.68 |
| A18U A47G A68G A86G | 1.31 |
| A11U A68G A118U | 0.7 |
| G15A A33U C40U U97C U122A | 1.1 |

| Variant | self-cleavage |
| --- | --- |
| U38C A56G A96U | 1.68 |
| U19A A64G A82G A94G | 0.56 |
| A11G A60G U139A | 0.64 |
| A22G A78G A126G | 0.09 |
| A54G A110U U120C | 0.47 |
| A51U G106A A118G | 0.01 |
| A55G U87C A94C U102C U124C | 1 |
| A11G A52U A78G | 0.33 |
| A11G U102C U103A | 0.14 |
| U38C A69G U124G U139C | 0.72 |
| A5G U38G A55G A98G | 0.37 |
| U38C A69U U139C | 1.58 |
| A62G A67G U130C | 1.17 |
| A22C U43C A86U | 2.2 |
| A24G U49C A56G U97C A125G | 0.33 |
| A47U A62G A96G | 0.71 |
| U72C A86G U102C | 0.04 |
| A24G G75A U102C | 0.03 |
| A30G A94C U122C | 1.27 |
| U39C U102A A129G | 0.66 |
| A59G A92U U132C | 1.39 |
| U9A A52U A91U | 0.39 |
| C34U A90G U127C | 0.39 |
| A55U A59G C77A | 0.68 |

| Variant | self-cleavage |
| --- | --- |
| A5G A23U U43C A89G | 1.06 |
| U37C A78U A117G | 0.09 |
| A33G A66G A117G U132C | 0.5 |
| A91G A92G A96U U103C U122C | 0.2 |
| A5G A69G A92G | 0.73 |
| U70C A86U A96G | 0.53 |
| A5G C77A A95G | 0.88 |
| A22G A23G A117U | 0 |
| A22G A86G U132C | 1.12 |
| A52G A96G U124C | 1.13 |
| A30U U43G A67G A117G | 2.88 |
| A4G A55C U130C | 0.23 |
| A47G A86U G93U A96G | 2.8 |
| A51C A68G A92G | 0.95 |
| G21C G73A G75C A90G A140G | 0.12 |
| A59G A78U G136A | 0.35 |
| A22G A59G A114G C121U | 0.81 |
| U19C A22G A59G A64G U122C | 1.19 |
| U3C A22G U49C U70C | 0.9 |
| A22U A60C A95G U97C | 1.37 |
| A4G U43A A140G | 1.59 |
| A33G A64U A86G | 1.37 |
| A5G A18G A60G A78G A117G | 0.84 |
| A59G A60G A62G U108C | 0.02 |

| Variant | self-cleavage |
| --- | --- |
| A52G A67G U124C | 1.58 |
| G21A A24C A118G A129G | 0.51 |
| U43C A95G U108C | 0 |
| A11G A13G A23G | 1.04 |
| A5G U39C U97C | 1.15 |
| U39C U57A A67G A126G | 1.33 |
| A60G A62G A67G A82G A96G U131C | 0.05 |
| A55G A67G A69G U103C | 0.55 |
| A78G A98U U103C A129G | 0.13 |
| A30G A55G A64U A86G A92G A118G | 0.57 |
| A5G U43C U132C | 1.62 |
| G7A C25U A55G A56G A111G | 0.12 |
| A54G A86G A90G | 0.67 |
| A30U U38C U103C U131C | 0.48 |
| U39C A92G A110G | 0.21 |
| A4U G7U A30U A36U A90G U130C | 0.9 |
| A11G A33G A55U A56G A114G | 0.06 |
| A51G A89G A118G | 0.86 |
| A18G C42U U49C A116U | 0.44 |
| A33U A55G U70C U120C | 0.23 |
| U12C A86G A95G U108C U131A | 0.03 |
| U2C A66G U131C U139C | 1.63 |
| G75A U102A U122C | 0.03 |
